Measurements: PMC10894277
Results are given in words; binding and its absence hold for the method and conditions named. In cells and extracts the contact can be indirect. Some entries that bind do so weakly or less than the wild type.

Amino acid sequences for entries named in this document (tags omitted). Residues count along the entry.
UniProt B1AS29, residues 32-919: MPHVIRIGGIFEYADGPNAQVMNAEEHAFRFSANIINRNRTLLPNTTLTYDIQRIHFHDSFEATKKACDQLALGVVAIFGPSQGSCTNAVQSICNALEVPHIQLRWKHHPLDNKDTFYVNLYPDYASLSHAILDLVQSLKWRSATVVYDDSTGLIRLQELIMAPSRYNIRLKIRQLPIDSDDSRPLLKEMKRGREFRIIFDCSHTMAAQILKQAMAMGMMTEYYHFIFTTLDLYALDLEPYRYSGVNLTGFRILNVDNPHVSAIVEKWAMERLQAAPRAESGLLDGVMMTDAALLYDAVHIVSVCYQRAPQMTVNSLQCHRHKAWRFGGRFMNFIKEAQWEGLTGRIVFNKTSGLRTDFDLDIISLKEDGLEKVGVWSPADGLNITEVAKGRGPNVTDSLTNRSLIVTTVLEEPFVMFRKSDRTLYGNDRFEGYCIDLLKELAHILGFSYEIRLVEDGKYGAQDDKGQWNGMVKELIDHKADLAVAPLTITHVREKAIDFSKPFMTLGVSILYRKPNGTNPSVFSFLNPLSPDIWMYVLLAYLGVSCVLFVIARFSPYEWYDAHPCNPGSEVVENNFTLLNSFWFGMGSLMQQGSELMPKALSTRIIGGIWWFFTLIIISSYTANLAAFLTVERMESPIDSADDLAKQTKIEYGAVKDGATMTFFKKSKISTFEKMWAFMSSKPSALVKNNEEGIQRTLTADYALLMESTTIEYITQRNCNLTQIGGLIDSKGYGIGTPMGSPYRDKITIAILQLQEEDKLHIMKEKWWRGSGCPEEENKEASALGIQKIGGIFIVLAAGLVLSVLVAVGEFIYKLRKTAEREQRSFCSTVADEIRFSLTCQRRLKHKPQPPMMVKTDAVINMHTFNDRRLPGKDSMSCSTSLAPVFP
UniProt P39087, residues 32-908: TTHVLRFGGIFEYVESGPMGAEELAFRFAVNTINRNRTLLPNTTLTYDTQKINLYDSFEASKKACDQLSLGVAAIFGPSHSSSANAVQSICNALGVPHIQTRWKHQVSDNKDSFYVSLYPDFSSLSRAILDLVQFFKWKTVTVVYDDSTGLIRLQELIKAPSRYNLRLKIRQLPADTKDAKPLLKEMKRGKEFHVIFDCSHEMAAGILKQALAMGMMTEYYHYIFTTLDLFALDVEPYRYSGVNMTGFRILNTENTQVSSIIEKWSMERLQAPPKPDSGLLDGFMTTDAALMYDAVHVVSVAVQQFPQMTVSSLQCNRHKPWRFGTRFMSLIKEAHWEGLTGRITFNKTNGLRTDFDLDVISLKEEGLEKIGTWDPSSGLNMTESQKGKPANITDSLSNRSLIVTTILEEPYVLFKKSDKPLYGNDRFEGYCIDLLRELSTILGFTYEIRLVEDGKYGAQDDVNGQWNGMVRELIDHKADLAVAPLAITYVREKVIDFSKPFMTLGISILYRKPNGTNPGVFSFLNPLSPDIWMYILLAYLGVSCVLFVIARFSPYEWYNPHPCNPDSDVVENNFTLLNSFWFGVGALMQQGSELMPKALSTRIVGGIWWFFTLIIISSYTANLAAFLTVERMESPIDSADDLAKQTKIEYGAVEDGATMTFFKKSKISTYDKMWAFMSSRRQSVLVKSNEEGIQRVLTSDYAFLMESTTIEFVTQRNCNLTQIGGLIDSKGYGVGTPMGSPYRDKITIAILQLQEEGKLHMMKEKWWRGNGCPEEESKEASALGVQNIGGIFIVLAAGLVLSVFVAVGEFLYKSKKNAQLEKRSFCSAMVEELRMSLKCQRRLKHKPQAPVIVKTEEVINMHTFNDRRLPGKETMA

T1: GluK5 kainate receptor subunit (mouse (endogenous in mouse cortex)) (UniProt Q61626)
T1 sequence: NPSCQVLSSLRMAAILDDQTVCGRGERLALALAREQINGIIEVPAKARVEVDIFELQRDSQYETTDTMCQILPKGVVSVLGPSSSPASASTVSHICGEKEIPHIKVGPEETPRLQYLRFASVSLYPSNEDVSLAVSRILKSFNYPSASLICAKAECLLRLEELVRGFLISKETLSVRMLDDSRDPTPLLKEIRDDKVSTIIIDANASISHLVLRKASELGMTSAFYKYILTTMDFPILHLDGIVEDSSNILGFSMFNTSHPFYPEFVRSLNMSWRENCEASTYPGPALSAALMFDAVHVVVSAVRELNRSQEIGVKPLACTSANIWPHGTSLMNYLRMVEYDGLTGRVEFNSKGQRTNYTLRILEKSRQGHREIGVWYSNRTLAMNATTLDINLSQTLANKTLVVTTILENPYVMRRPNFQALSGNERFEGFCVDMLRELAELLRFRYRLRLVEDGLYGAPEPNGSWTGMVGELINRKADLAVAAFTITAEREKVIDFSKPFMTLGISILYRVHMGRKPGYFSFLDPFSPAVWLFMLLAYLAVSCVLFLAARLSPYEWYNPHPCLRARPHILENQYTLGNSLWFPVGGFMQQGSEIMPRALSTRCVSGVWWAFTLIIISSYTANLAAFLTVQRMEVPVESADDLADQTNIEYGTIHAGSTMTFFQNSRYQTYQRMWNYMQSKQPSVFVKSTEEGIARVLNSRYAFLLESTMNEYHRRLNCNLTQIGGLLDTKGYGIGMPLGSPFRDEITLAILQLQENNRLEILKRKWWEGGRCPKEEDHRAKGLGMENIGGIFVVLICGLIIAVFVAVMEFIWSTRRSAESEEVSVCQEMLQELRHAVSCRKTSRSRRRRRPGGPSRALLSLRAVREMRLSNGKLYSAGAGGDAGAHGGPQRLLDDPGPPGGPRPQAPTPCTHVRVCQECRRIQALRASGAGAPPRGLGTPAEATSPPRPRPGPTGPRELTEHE

T2: GluK4 kainate receptor subunit (mouse (endogenous in mouse cortex)) (UniProt Q8BMF5)
T2 sequence: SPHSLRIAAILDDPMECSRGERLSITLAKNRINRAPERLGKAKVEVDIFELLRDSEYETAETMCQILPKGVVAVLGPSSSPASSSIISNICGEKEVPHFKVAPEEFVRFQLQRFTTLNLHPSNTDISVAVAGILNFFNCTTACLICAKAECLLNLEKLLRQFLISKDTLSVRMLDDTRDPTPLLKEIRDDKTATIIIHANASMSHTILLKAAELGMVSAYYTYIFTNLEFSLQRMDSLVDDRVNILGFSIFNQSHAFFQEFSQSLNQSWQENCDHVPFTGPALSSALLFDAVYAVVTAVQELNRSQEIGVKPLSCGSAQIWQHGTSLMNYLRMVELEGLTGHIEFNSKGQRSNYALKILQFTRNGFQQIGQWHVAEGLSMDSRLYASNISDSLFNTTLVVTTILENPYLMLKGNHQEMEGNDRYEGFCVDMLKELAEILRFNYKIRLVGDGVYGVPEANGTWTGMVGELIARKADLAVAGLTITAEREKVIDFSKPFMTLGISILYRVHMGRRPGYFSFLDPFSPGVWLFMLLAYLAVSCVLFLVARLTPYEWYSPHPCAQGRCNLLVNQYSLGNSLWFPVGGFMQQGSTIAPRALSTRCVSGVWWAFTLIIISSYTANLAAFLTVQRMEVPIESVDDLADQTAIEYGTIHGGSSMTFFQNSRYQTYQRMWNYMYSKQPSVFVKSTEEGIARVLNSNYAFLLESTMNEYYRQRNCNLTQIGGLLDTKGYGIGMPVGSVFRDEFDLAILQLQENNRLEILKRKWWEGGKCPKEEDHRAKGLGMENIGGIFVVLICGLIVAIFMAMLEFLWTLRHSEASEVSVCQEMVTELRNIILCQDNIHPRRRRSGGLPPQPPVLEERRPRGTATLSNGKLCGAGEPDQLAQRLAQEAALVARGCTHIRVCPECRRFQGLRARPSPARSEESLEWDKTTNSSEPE


How the values were obtained:
Assay in all cases: co-IP; GluK2, GluK3, GluK4 or GluK5 antibody (1 ug) on Protein A agarose; mouse cortex (WT; also GluK3 KO) lysed in Buffer A (20 mM Tris-HCl pH 8.0, 150 mM NaCl, 5 mM EDTA, 1% Triton X-100); 4 °C overnight; washed twice with Buffer A plus 500 mM NaCl and four times with Buffer A; western blotting with GluK2-5 antibodies
[1] = biological target: T1, GluK5 kainate receptor subunit (mouse (endogenous in mouse cortex))
[2] = biological target: T2, GluK4 kainate receptor subunit (mouse (endogenous in mouse cortex))
[3] = biological target: GluK3 kainate receptor subunit (mouse (endogenous in mouse cortex)) (UniProt B1AS29)
[4] = biological target: GluK2 kainate receptor subunit (mouse (endogenous in mouse cortex)) (UniProt P39087)

Row | Molecule | binding [1] | binding [2] | binding [3] | binding [4]
1 | GluK2 kainate receptor subunit (from UniProt P39087 32-908) | binds | binds | binds | 
2 | GluK4 kainate receptor subunit (protein, UniProt Q8BMF5 21-956) SPHSLRIAAILDDPMECSRGERLSITLAKNRINRAPERLGKAKVEVDIFELLRDSEYETAETMCQILPKGVVAVLGPSSSPASSSIISNICGEKEVPHFKVAPEEFVRFQLQRFTTLNLHPSNTDISVAVAGILNFFNCTTACLICAKAECLLNLEKLLRQFLISKDTLSVRMLDDTRDPTPLLKEIRDDKTATIIIHANASMSHTILLKAAELGMVSAYYTYIFTNLEFSLQRMDSLVDDRVNILGFSIFNQSHAFFQEFSQSLNQSWQENCDHVPFTGPALSSALLFDAVYAVVTAVQELNRSQEIGVKPLSCGSAQIWQHGTSLMNYLRMVELEGLTGHIEFNSKGQRSNYALKILQFTRNGFQQIGQWHVAEGLSMDSRLYASNISDSLFNTTLVVTTILENPYLMLKGNHQEMEGNDRYEGFCVDMLKELAEILRFNYKIRLVGDGVYGVPEANGTWTGMVGELIARKADLAVAGLTITAEREKVIDFSKPFMTLGISILYRVHMGRRPGYFSFLDPFSPGVWLFMLLAYLAVSCVLFLVARLTPYEWYSPHPCAQGRCNLLVNQYSLGNSLWFPVGGFMQQGSTIAPRALSTRCVSGVWWAFTLIIISSYTANLAAFLTVQRMEVPIESVDDLADQTAIEYGTIHGGSSMTFFQNSRYQTYQRMWNYMYSKQPSVFVKSTEEGIARVLNSNYAFLLESTMNEYYRQRNCNLTQIGGLLDTKGYGIGMPVGSVFRDEFDLAILQLQENNRLEILKRKWWEGGKCPKEEDHRAKGLGMENIGGIFVVLICGLIVAIFMAMLEFLWTLRHSEASEVSVCQEMVTELRNIILCQDNIHPRRRRSGGLPPQPPVLEERRPRGTATLSNGKLCGAGEPDQLAQRLAQEAALVARGCTHIRVCPECRRFQGLRARPSPARSEESLEWDKTTNSSEPE | binds |  |  | binds

The next lines start with the values.

Row | binding [1] | binding [2] | binding [3] | binding [4] | Molecule
3 | no binding | no binding |  | binds | GluK3 kainate receptor subunit (from UniProt B1AS29 32-919)
4 |  | binds |  | binds | GluK5 kainate receptor subunit (protein, UniProt Q61626 15-979) NPSCQVLSSLRMAAILDDQTVCGRGERLALALAREQINGIIEVPAKARVEVDIFELQRDSQYETTDTMCQILPKGVVSVLGPSSSPASASTVSHICGEKEIPHIKVGPEETPRLQYLRFASVSLYPSNEDVSLAVSRILKSFNYPSASLICAKAECLLRLEELVRGFLISKETLSVRMLDDSRDPTPLLKEIRDDKVSTIIIDANASISHLVLRKASELGMTSAFYKYILTTMDFPILHLDGIVEDSSNILGFSMFNTSHPFYPEFVRSLNMSWRENCEASTYPGPALSAALMFDAVHVVVSAVRELNRSQEIGVKPLACTSANIWPHGTSLMNYLRMVEYDGLTGRVEFNSKGQRTNYTLRILEKSRQGHREIGVWYSNRTLAMNATTLDINLSQTLANKTLVVTTILENPYVMRRPNFQALSGNERFEGFCVDMLRELAELLRFRYRLRLVEDGLYGAPEPNGSWTGMVGELINRKADLAVAAFTITAEREKVIDFSKPFMTLGISILYRVHMGRKPGYFSFLDPFSPAVWLFMLLAYLAVSCVLFLAARLSPYEWYNPHPCLRARPHILENQYTLGNSLWFPVGGFMQQGSEIMPRALSTRCVSGVWWAFTLIIISSYTANLAAFLTVQRMEVPVESADDLADQTNIEYGTIHAGSTMTFFQNSRYQTYQRMWNYMQSKQPSVFVKSTEEGIARVLNSRYAFLLESTMNEYHRRLNCNLTQIGGLLDTKGYGIGMPLGSPFRDEITLAILQLQENNRLEILKRKWWEGGRCPKEEDHRAKGLGMENIGGIFVVLICGLIIAVFVAVMEFIWSTRRSAESEEVSVCQEMLQELRHAVSCRKTSRSRRRRRPGGPSRALLSLRAVREMRLSNGKLYSAGAGGDAGAHGGPQRLLDDPGPPGGPRPQAPTPCTHVRVCQECRRIQALRASGAGAPPRGLGTPAEATSPPRPRPGPTGPRELTEHE
